From PMC11748760
Like-named read-outs stand apart in the source and are kept apart here. These are yes or no findings as the source states them, for the method shown. In cells and extracts the contact can be indirect. Some entries that bind do so weakly or less than the wild type.

The chains behind the UniProt entries cited, without tags or fusion partners. Where a name states a change or a piece, a line headed by the entry shows the natural chain unless it says otherwise.
UniProt Q8NEZ2: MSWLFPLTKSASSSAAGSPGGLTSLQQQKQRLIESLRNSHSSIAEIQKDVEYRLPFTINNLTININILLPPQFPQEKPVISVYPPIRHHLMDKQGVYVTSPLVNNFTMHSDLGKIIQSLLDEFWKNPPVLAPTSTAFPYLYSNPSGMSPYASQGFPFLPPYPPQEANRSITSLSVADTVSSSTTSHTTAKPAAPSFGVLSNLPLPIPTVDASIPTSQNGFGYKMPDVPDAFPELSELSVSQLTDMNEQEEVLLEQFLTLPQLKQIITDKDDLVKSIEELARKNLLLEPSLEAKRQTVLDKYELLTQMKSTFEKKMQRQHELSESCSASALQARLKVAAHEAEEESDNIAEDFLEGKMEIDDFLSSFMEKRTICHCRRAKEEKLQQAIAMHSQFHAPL
UniProt Q9UK41: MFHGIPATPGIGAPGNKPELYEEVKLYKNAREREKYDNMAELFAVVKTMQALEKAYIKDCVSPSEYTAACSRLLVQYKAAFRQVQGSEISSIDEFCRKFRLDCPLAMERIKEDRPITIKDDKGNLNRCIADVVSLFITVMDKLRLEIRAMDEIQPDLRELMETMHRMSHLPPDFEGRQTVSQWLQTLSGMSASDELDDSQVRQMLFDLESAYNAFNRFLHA
UniProt Q99816: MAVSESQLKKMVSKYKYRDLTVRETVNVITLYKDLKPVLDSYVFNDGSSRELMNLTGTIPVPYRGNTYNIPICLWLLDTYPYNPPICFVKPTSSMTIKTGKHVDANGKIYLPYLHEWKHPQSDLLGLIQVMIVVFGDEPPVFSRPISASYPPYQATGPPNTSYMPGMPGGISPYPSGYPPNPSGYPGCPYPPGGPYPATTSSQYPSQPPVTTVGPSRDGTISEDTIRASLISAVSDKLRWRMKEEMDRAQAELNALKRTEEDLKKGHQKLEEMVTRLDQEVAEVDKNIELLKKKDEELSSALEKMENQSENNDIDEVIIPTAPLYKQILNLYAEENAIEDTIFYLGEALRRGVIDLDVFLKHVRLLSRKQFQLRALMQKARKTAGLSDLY

T1: mVenus-mVPS37A Δ43–139 (Mut) (mouse) (UniProt Q8CHS8)
T1 sequence: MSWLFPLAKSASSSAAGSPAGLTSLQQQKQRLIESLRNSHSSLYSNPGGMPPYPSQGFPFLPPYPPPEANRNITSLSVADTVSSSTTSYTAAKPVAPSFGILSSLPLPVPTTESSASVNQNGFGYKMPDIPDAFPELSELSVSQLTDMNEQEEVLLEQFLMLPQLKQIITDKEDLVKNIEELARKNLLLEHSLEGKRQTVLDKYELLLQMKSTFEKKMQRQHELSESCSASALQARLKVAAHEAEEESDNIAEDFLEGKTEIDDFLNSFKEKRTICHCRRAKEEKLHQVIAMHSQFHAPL

T2: mVenus-mVPS37A FL (WT) (mouse) (UniProt Q8CHS8)
T2 sequence: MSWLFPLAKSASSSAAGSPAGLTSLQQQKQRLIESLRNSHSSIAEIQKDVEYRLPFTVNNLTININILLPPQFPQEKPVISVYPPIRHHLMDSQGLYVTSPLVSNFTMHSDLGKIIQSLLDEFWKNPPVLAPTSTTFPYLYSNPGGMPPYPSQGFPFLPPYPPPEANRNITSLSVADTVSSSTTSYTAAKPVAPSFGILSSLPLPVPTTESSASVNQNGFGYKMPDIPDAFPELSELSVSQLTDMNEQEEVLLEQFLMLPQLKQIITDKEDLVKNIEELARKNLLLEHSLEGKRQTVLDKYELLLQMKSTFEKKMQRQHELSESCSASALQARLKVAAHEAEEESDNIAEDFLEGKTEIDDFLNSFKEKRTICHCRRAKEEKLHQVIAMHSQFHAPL


Assays:
Test in all cases: co-IP; GFP-trap beads on lysates of U-2 OS cells expressing mVenus-VPS37A constructs; 0.5% NP-40 lysis buffer (10 mM Tris-HCl pH 7.5, 150 mM NaCl, 0.5 mM EDTA); washed three times with 0.05% NP-40 buffer; immunoblotting
[1] = target: T1, mVenus-mVPS37A Δ43–139 (Mut) (mouse)
[2] = target: T2, mVenus-mVPS37A FL (WT) (mouse)
[3] = target: T1, mVenus-mVPS37A Δ43–139 (Mut) (mouse); remark: listed apart in the source
[4] = target: mVenus-hVPS37A K382D (human) (UniProt Q8NEZ2)
[5] = target: T2, mVenus-mVPS37A FL (WT) (mouse); remark: listed apart in the source
[6] = target: mVenus-hVPS37A WT (human) (UniProt Q8NEZ2)

Row | Molecule | binding [1] | binding [2] | binding [3] | binding [4] | binding [5] | binding [6]
1 | VPS28 (from UniProt Q9UK41 1-221) | binds | binds |  |  |  | 
2 | TSG101 (from UniProt Q99816 1-390) | binds | binds |  |  |  | 
3 | UBAP1 (protein, UniProt Q9NZ09 1-502) MASKKLGADFHGTFSYLDDVPFKTGDKFKTPAKVGLPIGFSLPDCLQVVREVQYDFSLEKKTIEWAEEIKKIEEAEREAECKIAEAEAKVNSKSGPEGDSKMSFSKTHSTATMPPPINPILASLQHNSILTPTRVSSSATKQKVLSPPHIKADFNLADFECEEDPFDNLELKTIDEKEELRNILVGTTGPIMAQLLDNNLPRGGSGSVLQDEEVLASLERATLDFKPLHKPNGFITLPQLGNCEKMSLSSKVSLPPIPAVSNIKSLSFPKLDSDDSNQKTAKLASTFHSTSCLRNGTFQNSLKPSTQSSASELNGHHTLGLSALNLDSGTEMPALTSSQMPSLSVLSVCTEESSPPNTGPTVTPPNFSVSQVPNMPSCPQAYSELQMLSPSERQCVETVVNMGYSYECVLRAMKKKGENIEQILDYLFAHGQLCEKGFDPLLVEEALEMHQCSEEKMMEFLQLMSKFKEMGFELKDIKEVLLLHNNDQDNALEDLMARAGAS |  |  | binds | no binding | binds | binds
